The other results are listed elsewhere or left out.
B1: PhoQ; a variant is named by its letters at X, in order, P23837 (parent)
chain: MKKLLRLFFPLSLRVRFLLATAAVVLVLSLAYGMVALIGYSVSFDKTTFRLLRGESNLFYTLAKWENNKLHVELPENIDKQSPTMTLIYDENGQLLWAQRDVPWLMKMIQPDWLKSNGFHEIEADVNDTSLLLSGDHSIQQQLQEVREDDDDAEMTHSVAVNVYPATSRMPKLTIVVVDTIPVELKSSYMVWSWFIYVLSANLLLVIPLLWVAAWWSLRPIEALAKEVRELEEHNRELLNPATTRELTSLVRNLNRLLKSERERYDKYRTTLTDLTHSLKTPLXXLQXXLRSLRSEKMSVSDAEPVMLEQISRISQQIGYYLHRASMRGGTLLSRELHPVAPLLDNLTSALNKVYQRKGVNISLDISPEISFVGEQNDFVEVMGNVLDNACKYCLEFVEISARQTDEHLYIVVEDDGPGIPLSKREVIFDRGQRVDTLRPGQGVGLAVAREITEQYEGKIVAGESMLGGARMEVIFGRQHSAPKDE

Variants of: B1
Test: enrichment ratio after two sorts for PhoP signalling (ratio (wild type AVST 3.29)); higher = more functional
Settings: with PhoP (E. coli)

Variant	enrichment ratio
FAEG	≤ 0.25
HVAY	≤ 0.25
WCYV	≤ 0.25
YARG	≤ 0.25
SMFA	≤ 0.25
HFPW	≤ 0.25
TSSH	11.3
SFSH	≤ 0.25
ILME	≤ 0.25
NLSN	≤ 0.25
IYDD	≤ 0.25
EMMN	≤ 0.25
ASCK	22.8
HISA	≤ 0.25
KVSY	≤ 0.25
PGNE	≤ 0.25
RKIN	≤ 0.25
NNDN	≤ 0.25
KHMS	≤ 0.25
SKSW	≤ 0.25
HHLE	≤ 0.25
NIRC	≤ 0.25
ELCC	≤ 0.25
PHYI	≤ 0.25
FNLP	≤ 0.25

Variant	enrichment ratio
QVPC	≤ 0.25
TTAA	9.33
DEKC	≤ 0.25
IFAW	≤ 0.25
TYGT	≤ 0.25
GFCC	≤ 0.25
QIHM	≤ 0.25
NMKY	≤ 0.25
MTDY	≤ 0.25
YILF	≤ 0.25
IICP	≤ 0.25
RQTH	≤ 0.25
PINH	≤ 0.25
GKFT	≤ 0.25
VQTE	≤ 0.25
FLQI	≤ 0.25
FVMD	≤ 0.25
TESI	13.5
QCQK	≤ 0.25
AALD	0.316
YPDV	≤ 0.25
VYHN	≤ 0.25
INRG	≤ 0.25
ERCT	≤ 0.25
LKLY	≤ 0.25

Variant	enrichment ratio
AHRW	≤ 0.25
MHGN	≤ 0.25
HDYA	≤ 0.25
TQVK	≤ 0.25
FASY	≤ 0.25
MVRT	≤ 0.25
FQSC	≤ 0.25
KYWL	≤ 0.25
GMYN	≤ 0.25
YNVC	≤ 0.25
PKLG	≤ 0.25
EYAI	≤ 0.25
YLGI	≤ 0.25
THHG	≤ 0.25
AQPQ	≤ 0.25
SDFV	≤ 0.25
DASW	≤ 0.25
KYVW	≤ 0.25
GFMV	≤ 0.25
QCRT	≤ 0.25
QCDY	10.3
EQHR	≤ 0.25
PIFL	≤ 0.25
YSER	≤ 0.25
TAGH	9.91

Variant	enrichment ratio
FGNL	≤ 0.25
TNIA	≤ 0.25
KYVM	≤ 0.25
IELS	2.67
MAEI	≤ 0.25
YGVT	0.549
HGEP	≤ 0.25
SSDI	≤ 0.25
MQHA	≤ 0.25
IWVR	≤ 0.25
TFRT	≤ 0.25
HWPM	≤ 0.25
KFWW	≤ 0.25
TQGM	14.5
QPRF	≤ 0.25
AFLK	1
KELH	≤ 0.25
RDIK	≤ 0.25
YSWC	≤ 0.25
GVKR	≤ 0.25
CRPF	≤ 0.25
SVCE	2.84
ETIG	≤ 0.25
HPYP	≤ 0.25
AFYT	≤ 0.25

Variant	enrichment ratio
HIYQ	≤ 0.25
FPHW	≤ 0.25
MYIP	≤ 0.25
MKMA	≤ 0.25
IFYQ	≤ 0.25
GLKK	≤ 0.25
NDKI	≤ 0.25
RFFY	≤ 0.25
DRQS	≤ 0.25
MTRL	≤ 0.25
PQTT	≤ 0.25
MYAY	≤ 0.25
YASP	≤ 0.25
KLAQ	≤ 0.25
YLWD	≤ 0.25
YRWT	≤ 0.25
YHKQ	≤ 0.25
PKDR	≤ 0.25
ADWK	≤ 0.25
LCGD	≤ 0.25
VAQY	≤ 0.25
TCWR	≤ 0.25
VIPM	≤ 0.25
LSWA	≤ 0.25
DDFP	≤ 0.25

Variant	enrichment ratio
GGNR	≤ 0.25
LPLA	0.507
RPHS	≤ 0.25
IFFM	≤ 0.25
EMEA	≤ 0.25
PDNY	≤ 0.25
HART	≤ 0.25
KAQE	≤ 0.25
KDGR	≤ 0.25
WTWI	≤ 0.25
FRGR	≤ 0.25
YMSF	≤ 0.25
QRVL	≤ 0.25
LCRI	≤ 0.25
NIAP	≤ 0.25
FQQV	≤ 0.25
LFLV	≤ 0.25
GCFV	≤ 0.25
KFPA	≤ 0.25
SDNP	≤ 0.25
IGTF	≤ 0.25
PSNP	≤ 0.25
GCAM	7.42
QVLE	≤ 0.25
RWLY	≤ 0.25

Variant	enrichment ratio
WHCA	≤ 0.25
GMTQ	≤ 0.25
GDLY	≤ 0.25
LFTM	≤ 0.25
MMWC	≤ 0.25
FNDS	1.51
LVSM	≤ 0.25
PMVK	≤ 0.25
SGPD	≤ 0.25
YNST	0.345
TFGR	≤ 0.25
AHHH	≤ 0.25
FGDH	≤ 0.25
DNSF	≤ 0.25
APTH	≤ 0.25
NNFC	≤ 0.25
AKRT	≤ 0.25
KDCW	≤ 0.25
ISKT	0.48
MYMS	≤ 0.25
NMVD	≤ 0.25
NQEC	≤ 0.25
FNWR	≤ 0.25
RMLN	≤ 0.25
NDLQ	≤ 0.25

Variant	enrichment ratio
SPYD	≤ 0.25
LEYR	≤ 0.25
RHGD	≤ 0.25
FPFS	≤ 0.25
ADDW	≤ 0.25
FEIH	≤ 0.25
TDHI	≤ 0.25
QFAM	≤ 0.25
NHQP	≤ 0.25
GIGY	3.68
DFWM	≤ 0.25
AEFQ	3.73
VWWW	≤ 0.25
DPHY	≤ 0.25
LLRD	≤ 0.25
ASAI	13.2
YPLI	≤ 0.25
FIRE	≤ 0.25
DAIN	≤ 0.25
YRMI	≤ 0.25
